The other results are listed elsewhere or left out. Sequences were assembled here from the parent chain. Values near 0.05 are background.
B1: TEV protease; numbered along this chain (parent)
chain: MGESLFKGPRDYNPISSSICHLTNESDGHTTSLYGIGFGPFIITNKHLFRRNNGTLVVQSLHGVFKVKDTTTLQQHLVDGRDMIIIRMPKDFPPFPQKLKFREPQREERICLVTTNFQTKSMSSMVSDTSCTFPSGDGIFWKHWIQTKDGQCGSPLVSTRDGFIVGIHSASNFTNTNNYFTSVPKNFMELLTNQEAQQWVSGWRLNADSVLWGGHKVFMVKPEEPFQPVKEATQL

Variants of: B1
Experiment: raw area under fraction-flipped curve 0-4 h after induction (AUC4h, not background-subtracted), DNA-recorder readout of cleavage of the substrate (dimensionless); higher = more cleavage of the substrate by the protease variant
Details: temperature: 34 °C; time window: 0-4 h after rhamnose induction
Protocol: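 In vivo DNA recorder in E. coli TOP10(DE3) ΔrhaA at 34 °C. Each TEVp single-site mutant (parent TEVp 0) is paired with a single-site variant of the 7-mer TEVs (canonical ENLYFQ|S). The substrate sits between flexible linkers in a Bxb1-sfGFP-TEVs-SsrA fusion, so cleavage stabilises Bxb1 and speeds flipping of a recombination array, read by NGS. The value is the raw area under the fraction-flipped curve over 0-4 h after rhamnose induction (AUC4h), with ≥20 reads per time point. It is not background-subtracted; inactive controls average about 0.047.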
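Note: Bxb1 expression induced with 0.2% (w/v) L-rhamnose at OD600 near 0.5, cultures sampled hourly, flipped fraction per protease–substrate barcode pair counted by paired-end Illumina sequencing.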

| Variant | area with substrate ENLYFAS | area with substrate ENLYFCS | area with substrate ENLYFES | area with substrate ENLYFFS | area with substrate ENLYFHS | area with substrate ENLYFIS | area with substrate ENLYFMS | area with substrate ENLYFNS | area with substrate ENLYFPS | area with substrate ENLYFRS | area with substrate ENLYFSS | area with substrate ENLYFYS | area with substrate ENLYFDS | area with substrate ENLYFGS | area with substrate ENLYFVS | area with substrate ENLYFWS | area with substrate ENLYFKS | area with substrate ENLYFLS | area with substrate ENLYFTS |
| --- | --- | --- | --- | --- | --- | --- | --- | --- | --- | --- | --- | --- | --- | --- | --- | --- | --- | --- | --- |
| MGESLFKGPRDYNPISSSICHLTNESDGHTTSLYGIGFGPFIITNKHLFRRNNGTLVVQSLHGVFKVKDTTTLQQHLVDGRDMIIIRMPKDFPPFPQSLKFREPQREERICLVTTNFQTKSMSSMVSDTSCTFPSGDGIFWKHWIQTKDGQCGSPLVSTRDGFIVGIHSASNFTNTNNYFTSVPKNFMELLTNQEAQQWVSGWRLNADSVLWGGHKVFMVKPEEPFQPVKEATQL [K98S] | 0.0563 | 0.055 | 0.0594 | 0.0618 | 0.0722 | 0.0552 | 0.0682 | 0.0741 | 0.0574 | 0.0721 | 0.0526 | 0.0402 |  |  |  |  |  |  |  |
| MGESLFKGPRDYNPISSSICHLTNESDGHTTSLYGIGFGPFIITNKHLFRRNNGTLVVQSLHGVFKVKDTTTLQQHLVDGRDMIIIRMPKDFPPFPQKLKFREPIREERICLVTTNFQTKSMSSMVSDTSCTFPSGDGIFWKHWIQTKDGQCGSPLVSTRDGFIVGIHSASNFTNTNNYFTSVPKNFMELLTNQEAQQWVSGWRLNADSVLWGGHKVFMVKPEEPFQPVKEATQL [Q105I] | 0.0662 | 0.0762 | 0.064 | 0.0601 | 0.0614 | 0.0621 | 0.0703 |  | 0.0593 | 0.0512 | 0.104 | 0.058 | 0.063 | 0.0494 | 0.0604 | 0.054 |  |  |  |
| MGESLFKGPRDYNPISSSICHLTNESDGHTTSLYGIGFGPFIITNKHLFRRNNGTLVVQSLHGVFKVKDTTTLQQHLVDGRDMIIIRMPKDFPPFPQKLKFREPLREERICLVTTNFQTKSMSSMVSDTSCTFPSGDGIFWKHWIQTKDGQCGSPLVSTRDGFIVGIHSASNFTNTNNYFTSVPKNFMELLTNQEAQQWVSGWRLNADSVLWGGHKVFMVKPEEPFQPVKEATQL [Q105L] | 0.0518 | 0.0482 | 0.0812 | 0.0664 | 0.0398 | 0.0763 | 0.0773 | 0.0716 | 0.0764 | 0.0673 | 0.0596 |  |  |  |  |  |  |  |  |
| MGESLFKGPRDYNPISSSICHLTNESDGHTTSLYGIGFGPFIITNKHLFRRNNGTLVVQSLHGVFKVKDTTTLQQHLVDGRDMIIIRMPKDFPPFPQKLKFRTPQREERICLVTTNFQTKSMSSMVSDTSCTFPSGDGIFWKHWIQTKDGQCGSPLVSTRDGFIVGIHSASNFTNTNNYFTSVPKNFMELLTNQEAQQWVSGWRLNADSVLWGGHKVFMVKPEEPFQPVKEATQL [E103T] | 0.0705 | 0.0541 | 0.0537 | 0.0769 |  | 0.0476 |  | 0.0636 | 0.0508 |  | 0.0729 |  | 0.0778 | 0.0466 |  |  | 0.0573 |  |  |
| MGESLFKGPRDYNPISSSICHLTNESDGHTTSLYGIGFGPFIITNKHLFRRNNGTLVVQSLHGVFKVKDTTTLQQHLVDGRDMIIIRMPKDFPPFPQKLKFREPQSEERICLVTTNFQTKSMSSMVSDTSCTFPSGDGIFWKHWIQTKDGQCGSPLVSTRDGFIVGIHSASNFTNTNNYFTSVPKNFMELLTNQEAQQWVSGWRLNADSVLWGGHKVFMVKPEEPFQPVKEATQL [R106S] | 0.0676 | 0.0709 | 0.0669 | 0.0705 | 0.0702 | 0.0654 | 0.0511 | 0.0724 | 0.0642 |  | 0.0847 | 0.0596 | 0.0603 | 0.0546 | 0.0709 |  | 0.0548 | 0.0654 | 0.0648 |
| MGESLFKGPRDYNPISSSICHLTNESDGHTTSLYGIGFGPFIITNKHLFRRNNGTLVVQSLHGVFKVKDTTTLQQHLVDGRDMIIIRMPKDFPPFPQKLKFREPQREELICLVTTNFQTKSMSSMVSDTSCTFPSGDGIFWKHWIQTKDGQCGSPLVSTRDGFIVGIHSASNFTNTNNYFTSVPKNFMELLTNQEAQQWVSGWRLNADSVLWGGHKVFMVKPEEPFQPVKEATQL [R109L] | 0.0564 | 0.0622 |  | 0.0629 |  | 0.0517 | 0.0797 | 0.0662 | 0.0571 |  |  | 0.0537 | 0.058 |  | 0.0511 | 0.0592 | 0.0614 |  | 0.07 |
| MGESLFKGPRDYNPISSSICHLTNESDGHTTSLYGIGFGPFIITNKHLFRRNNGTLVVQSLHGVFKVKDTTTLQQHLVDGRDMIIIRMPKDFPPFPQKLKFREPQREERICLVTTNFYTKSMSSMVSDTSCTFPSGDGIFWKHWIQTKDGQCGSPLVSTRDGFIVGIHSASNFTNTNNYFTSVPKNFMELLTNQEAQQWVSGWRLNADSVLWGGHKVFMVKPEEPFQPVKEATQL [Q118Y] | 0.0567 | 0.0592 |  | 0.0876 |  | 0.0645 | 0.0653 |  |  | 0.0767 |  |  |  | 0.057 | 0.0598 | 0.0565 |  |  | 0.0537 |
| MGESLFKGPRDYNPISSSICHLTNESDGHTTSLYGIGFGPFIITNKHLFRRNNGTLVVQSLHGVFKVKDTTTLQQHLVDGRDMIIIRMPKDFPPFPQKLKFREPQREERICLMTTNFQTKSMSSMVSDTSCTFPSGDGIFWKHWIQTKDGQCGSPLVSTRDGFIVGIHSASNFTNTNNYFTSVPKNFMELLTNQEAQQWVSGWRLNADSVLWGGHKVFMVKPEEPFQPVKEATQL [V113M] | 0.0695 | 0.0631 | 0.0574 | 0.0737 |  | 0.0488 | 0.0688 | 0.0528 |  | 0.0646 |  | 0.0539 | 0.0627 | 0.0588 | 0.0347 |  |  | 0.0679 | 0.0604 |
| MGESLFKGPRDYNPISSSICHLTNESDGHTTSLYGIGFGPFIITNKHLFRRNNGTLVVQSLHGVFKVKDTTTLQQHLVDGRDMIIIRMPKDFPPFPQKLKFREPQREERIDLVTTNFQTKSMSSMVSDTSCTFPSGDGIFWKHWIQTKDGQCGSPLVSTRDGFIVGIHSASNFTNTNNYFTSVPKNFMELLTNQEAQQWVSGWRLNADSVLWGGHKVFMVKPEEPFQPVKEATQL [C111D] | 0.0645 | 0.0368 | 0.0562 | 0.0628 | 0.058 | 0.0607 | 0.0577 | 0.0521 | 0.0765 | 0.0557 | 0.0584 | 0.0569 |  | 0.0627 | 0.0721 | 0.0624 | 0.0484 | 0.0532 | 0.0477 |
| MGESLFKGPRDYNPISSSICHLTNESDGHTTSLYGIGFGPFIITNKHLFRRNNGTLVVQSLHGVFKVKDTTTLQQHLVDGRDMIIIRMPKDFPPFPQKLKFREPQREERIHLVTTNFQTKSMSSMVSDTSCTFPSGDGIFWKHWIQTKDGQCGSPLVSTRDGFIVGIHSASNFTNTNNYFTSVPKNFMELLTNQEAQQWVSGWRLNADSVLWGGHKVFMVKPEEPFQPVKEATQL [C111H] | 0.0653 |  |  | 0.0641 | 0.0418 | 0.0552 | 0.0973 | 0.0627 | 0.0607 | 0.0318 |  |  |  |  |  | 0.0594 | 0.0602 | 0.0603 | 0.0609 |

Source: the supplement of paper PMC12217912
